Reference: the supplement of paper PMC10185492
The other results are listed elsewhere or left out. These are enrichments in a pooled selection; single values are uncertain.

Tested on: SARS-CoV-2 3CLpro (nsp5)
Experiment: substrate phage enrichment score (protease-eluted vs HEPES control, +1 offset) (ratio); higher = better cleaved substrate
Conditions: selection round: 4; protease elution time: 15 min
Experimental: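 Random heptapeptide substrate phage display (M13 pIII fusion, heptapeptide between an N-terminal biotinylated AviTag GLNDIFEAQKIEWHE and pIII; phages immobilised on streptavidin) eluted by cleavage with 50 nM protease in 20 mM HEPES at 37 °C. Selected phages were NGS sequenced, and the enrichment score is (reads in protease sample + 1)/(reads in HEPES blank-selection control + 1).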

Substance	substrate phage enrichment score
RTANPFR	0.167
AKRDTEI	5
KRQYLQP	> 27
SGTDESL	3.18
AVRCELQ	> 124
ICAPRPS	> 35
ETTSRES	0.25
KQCVTRN	1.88
LYRERPD	15
RGHWTTQ	1.71
VTRTHLQ	> 42
RQSVQKH	> 32
HSRKDCG	1.52
FPFRTNH	1.46
RGLCICR	> 22
SKSPQVF	20.3
KGQVPSP	0.0882
LSNPVDY	0.8
RRILRFR	> 139
PRLPSLQ	> 23
SSGSVAC	> 21
YWPTKKG	0.316
GERHVSC	6.2
SCTHRWP	79

Substance	substrate phage enrichment score
QDAPRIL	4
CLAAHHH	0.606
TDVKQFQ	1.2
QHKALSR	> 24
ANEIHFG	0.967
TPGTSSN	> 27
SKAGREE	6.25
ICMAGEC	4.5
PHAIRSH	1.44
RSTAHHH	0.0909
EPTYPLS	> 24
ATWTIRA	3.38
KAHGTGT	> 21
GSTSTLP	4.6
PNSMHPK	0.353
ARGIELR	3.57
EEPPGGC	0.556
SSESWTT	0.565
SKPSACR	10
THAKPQS	7.75
RATRARE	0.522
WYRCPAR	9.33
HKTSYVK	2.43
SNALFRN	> 22

Substance	substrate phage enrichment score
ERCTTLH	> 36
EPNTPIT	> 33
THAAVTP	3.12
CWAAHHH	0.414
GCAESMC	1
LYFKGGS	1.67
PNERNSR	> 37
TCNVNLQ	> 245
LTGSMLQ	58
HEATARD	> 21
GSQTQCS	8.5
EASTEYG	0.357
QYAPGMT	6.25
KGVDRTL	27.7
PLMNMAE	> 27
CKNSSQL	6.43
YLLPGKQ	> 26
GRHVILQ	> 105
LHARPGQ	> 29
SCRRPRD	1
PAPMEPS	> 23
SKVRMGS	> 22
YCRGNLN	> 31
VIPTTVN	> 23

Substance	substrate phage enrichment score
AEYRASC	> 21
SSRQSVR	> 48
VLPHIII	0.75
IYTVTEQ	> 23
SWSQFYR	9
PILRNRN	0.087
AGLSPNR	> 65
TATPRPL	3.8
QCDRPEK	> 34
ACVDMLT	> 22
DSTQPSA	> 24
EDTGNMV	0.0536
GAPASRS	3.17
VPTSRLQ	> 42
GDDGNWQ	> 35
VCMETQH	> 22
QTWPSRL	> 47
SGRKGNP	6.17
CSKTNSK	0.3
QKGVKMQ	19.3
SCSQPAG	1.53
IVRPHII	0.619
DIPRSYP	> 23
VYGRCAV	> 22

Substance	substrate phage enrichment score
TDTEAWS	> 39
RSGAHHH	2.29
CVRRIEP	> 22
LQAAHHH	1.7
CRDAHDS	11
ERIHTQG	> 25
QQPEYMV	1.33
SNTEPRD	23.3
EFRACPP	> 30
RRPDHFH	1.21
YTDALRQ	1.12
LTETNPS	> 25
ESDENHA	7.25
QNGMESA	4.33
PESPLKN	8.27
NPRVSLQ	> 42
VGVCGRV	6.25
KCQRTHI	2.83
CTPQKCQ	> 25
IRTDLSA	0.3
SKTGTKC	> 40
RSCVLQS	> 29
YPSMRPQ	3.4
CQGSVKG	> 44

Substance	substrate phage enrichment score
DCAAAHH	0.481
QLHSQNG	11.3
VESSVRQ	3.69
CTGATLQ	> 29
QRAPCPL	> 46
GSATRLQ	> 103
GVSAYDN	1.85
NAGERDR	> 37
QQCTNGW	15.3
SDALTSK	3.33
RRDAIPV	1.73
QYMPVPR	4.17
PMTTRLQ	> 30
LNRIEQT	> 24
SRAFNRE	> 34
RQGTLSP	2.8
REGHIRL	0.5
SGIRQLV	2.57
AERLSCY	1.86
YRTPVSG	> 38
CDRGCAY	1.14
LEPGLTR	5.43
HECDLYP	1.46
PHDCTVG	> 21

Substance	substrate phage enrichment score
CPCNVTR	> 21
RKLNTLG	> 52
NSRAGRS	47
VNYNNKT	> 29
PGGTCTG	> 51
NSDAQRS	5
CQSRGPT	0.421
TKQSYSG	> 28
PAAHHHH	0.885
ASQGGAK	> 36
YSRGDME	> 22
SYGSDAR	2.6
NAAVRRP	> 84
GGYNGAM	> 34
TNGHLNA	> 33
GSTAAHH	0.412
HARATTA	72.5
MHVPNSP	3.33
CATPDCA	> 34
AHRAGNV	3.89
SIGQTHS	> 91
ASDSVLQ	> 69
PCAKSQE	0.262
LGQPDLW	> 38

Substance	substrate phage enrichment score
PPVAEQH	33
SWQVGNS	7.88
SPQQTPI	0.0375
LAVPPRD	> 22
PLREALP	> 21
QWRPVQI	3.09
SRQLYSP	> 35
QGNLNTC	0.194
ASAAHHH	1.34
HERNGLG	0.0444
KHQLPVR	> 53
KHCGSNG	13.5
VLLTDPV	> 25
VRPQKAP	> 38
NREQNAD	> 25
GSDAPSP	> 26
PSGRCSR	> 34
AERINTR	> 29
VKTSWPP	> 58
VAWPQLQ	> 49
GHAEAQT	> 33
RVAAHHH	1.56
NHWAGTA	> 25
ANTSGLN	0.6

Substance	substrate phage enrichment score
GCTTHGA	> 24
KCQSLDW	3.48
SESELPD	2.41
HLHFQGG	2.36
TREIYSE	2.75
THNQIMK	5
APCPASR	5.5
LLPLEAR	6
GQAAKLQ	78
KTDVNLH	> 21
PVVENAR	> 29
PKAAHHH	0.753
VHMKVER	> 24
NKPHVQG	> 24
QHAITGH	1.67
GLRLFFR	> 25
TAGVTLH	24
LTRLCAE	4.14
TPVSGCQ	> 42
AQSSVTI	9.17
TNAAHHH	0.45
GAATLQA	> 55
SRQRNRQ	> 22
PIQTKQC	> 26

Substance	substrate phage enrichment score
RPVPKVC	4.5
GQAHPCG	> 23
MYYWPWR	2.9
CDVLPLR	> 41
CGLGGYR	0.52
SNCWRAA	> 25
ACNQSVK	> 23
ECNFQGG	> 47
TRSGKPP	1.07
QELYSQG	> 26
TPDLTPV	> 43
KAQLMSN	> 24
AMTCTLQ	> 35
TPAAHHH	0.608
SAAILQS	> 24
GQRLRLP	1.64
NTIAVMQ	20
NGSPNSS	4.5
